Assay results taken from PubChem BioAssay AID488969 (Vanderbilt High Throughput Screening Facility, 2010).
“And” between values parts separate entries of the source, which are not always exact repeats. Equal values may be shown once. Over roughly 110,000 compounds, “z-score” has its median near -0.1; the highest 2% begin near 2. The list shows a part of the results. The source made the active and inactive calls.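 How the source made its calls: active means z-score in the third read window above 3 or below -3; inactive means the rest.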

Each molecule was assayed against Metabotropic glutamate receptor 8 (Rattus norvegicus) (UniProt P70579) (assay: rat mGluR8 modulators via GIRK flux, primary screen, cell-based, thallium flux, HTS (AID 488969)). Settings: HEK293 rat mGluR8, GIRK (G protein-gated inwardly rectifying potassium channel) thallium flux, FluoZin2; at 10 µM; stronger effect = higher value; submaximal glutamate (EC20) added with thallium.
UniProt P70579, sequence (P70579 whole entry, looked up): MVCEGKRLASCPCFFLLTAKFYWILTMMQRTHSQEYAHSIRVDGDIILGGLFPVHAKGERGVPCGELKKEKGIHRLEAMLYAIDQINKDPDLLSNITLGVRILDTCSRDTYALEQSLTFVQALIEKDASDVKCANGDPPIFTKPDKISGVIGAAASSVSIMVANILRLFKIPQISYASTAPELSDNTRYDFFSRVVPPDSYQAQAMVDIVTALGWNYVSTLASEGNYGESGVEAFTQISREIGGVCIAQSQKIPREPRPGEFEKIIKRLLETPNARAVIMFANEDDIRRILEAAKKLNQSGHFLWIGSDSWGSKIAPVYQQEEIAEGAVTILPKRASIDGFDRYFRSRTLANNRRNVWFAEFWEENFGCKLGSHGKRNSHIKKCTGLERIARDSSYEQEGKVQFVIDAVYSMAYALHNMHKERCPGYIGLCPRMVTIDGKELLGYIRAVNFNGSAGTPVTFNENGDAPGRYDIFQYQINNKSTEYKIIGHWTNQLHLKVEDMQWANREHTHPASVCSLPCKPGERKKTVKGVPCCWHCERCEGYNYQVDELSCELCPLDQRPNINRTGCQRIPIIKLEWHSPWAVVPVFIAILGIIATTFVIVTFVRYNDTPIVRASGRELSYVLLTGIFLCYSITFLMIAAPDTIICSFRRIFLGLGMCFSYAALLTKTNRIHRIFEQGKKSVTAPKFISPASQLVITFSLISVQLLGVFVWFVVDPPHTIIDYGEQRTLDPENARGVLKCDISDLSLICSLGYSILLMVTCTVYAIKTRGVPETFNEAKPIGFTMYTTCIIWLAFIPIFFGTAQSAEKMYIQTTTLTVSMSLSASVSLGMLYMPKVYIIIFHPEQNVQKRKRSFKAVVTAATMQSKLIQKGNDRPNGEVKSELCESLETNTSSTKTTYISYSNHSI

Row | SMILES | z-score
1 | O=S(=O)(O/N=C1\CCCc2ccccc21)c1ccccc1 | -0.18
2 | CN(C)/C=C(/C#N)C(=O)c1cccc(Oc2ccc(C(C)(C)C)cc2)c1 | 0.845
3 | O=C(Cn1cnc2ccccc2c1=O)N1CCN(c2ccccc2)CC1 | -0.0843
4 | COc1ccc(Cl)cc1NC(=O)Cn1nc(-c2ccc(C)cc2)n(C)c1=S | -0.361
5 | Cc1ccc(CCNC(=O)C2CCN(S(=O)(=O)c3cccc4nonc34)CC2)cc1 | 0.305
6 | CCCN1CCCc2ccccc21 | -0.158
7 | CCC(=O)Nc1c(C)n[nH]c1C | -0.256
8 | CCN(NC(=O)C(O)(c1ccc(F)cc1)c1ccc(F)cc1)C(=O)c1ccccc1 | 0.323
9 | COc1ccc(N2CCN(S(=O)(=O)c3ccc(C(=O)NCc4ccco4)cc3)CC2)cc1 | -0.212
10 | N#Cc1cccc(-c2cn(S(=O)(=O)c3ccc(Cl)cc3)nc2N)c1 | -0.521
11 | COC(=O)c1ccc(C2C(Oc3ccccc3)C(=O)N2CCc2ccc(OC)c(OC)c2)cc1 (stereo unspecified) | 0.032
12 | COCc1cc(C)nc(SCC(=O)Nc2cccc(C)c2C)c1C#N | -0.122
13 | CCOC(=O)C1CCCN(CCCc2ccccc2)C1 (stereo unspecified) | -0.0595 and 0.125
14 | CCCCC1=NN2C(=N)CC(=O)N=C2S1 | 0.0499
15 | Cc1ccccc1N/C(SCc1ccc(Cl)cc1)=C(/C#N)C(=O)NCc1ccco1 | -0.0372
16 | CCOc1cc(NC(=O)c2ccco2)c(OCC)cc1NC(=O)COc1ccccc1C | -0.025
17 | COc1ccc(C(=O)NC(=S)Nc2nc(C)c(C(=O)N(C)C)s2)cc1 | -0.0547
18 | CCOC(=O)N1CCC(NC(=O)Cn2ncc3c2-c2cc(C)ccc2OC3)CC1 | -0.897
19 | COc1cccc(N/C(SCc2ccccc2Cl)=C(/C#N)C(=O)NCc2cccs2)c1 | -0.163
20 | COc1cccc(NC(=O)N2CCCC(C(=O)NCc3ccc(F)cc3)C2)c1 (stereo unspecified) | 0.595
21 | CC(=O)Nc1cccc(Oc2ncnc3scc(-c4ccc(C)cc4)c23)c1 | -0.497
22 | O=C(c1cncc(Br)c1)N1CCCc2ccccc21 | 0.0197
23 | CCN1C(=O)/C(=C/c2ccc(C)s2)SC1=Nc1ccc(OC)cc1 | -0.29

Row | SMILES | z-score
24 | CN1CCN(NC(=O)C2CC2)CC1 | 0.0148
25 | CCn1c(CC(=O)Nc2ccccc2F)nnc1SCC(=O)N1CCN(c2ccccc2)CC1 | -0.19
26 | Cc1cccc(C)c1NC(=O)CSc1nc(C)c(CC(=O)c2ccc(Br)cc2)c(C)c1C#N | -0.0545
27 | CC(=O)Nc1cc2c(cc1C(=O)C(C)C)OCCO2 | -0.0402
28 | CC12CCC(c3nnc(SCc4ccc(Cl)cc4)nc31)C2(C)C (stereo unspecified) | 0.117
29 | CCOc1ccc(NCC2CCOC(C)(C)C2)cc1 (stereo unspecified) | 0.172
30 | O=C(/C=C/c1ccc(Cl)c([N+](=O)[O-])c1)Nc1ccc(N2CCCC2)c(Cl)c1 | -0.0736
31 | CSc1nc(-c2ccccc2)nc(N)c1C(C)=O | -0.0854
32 | CCC1CCCCN1C(=S)Nc1ccc(C(C)=O)cc1 (stereo unspecified) | -0.196
33 | O=C(NC(=S)NNC(=O)c1ccccc1O)c1ccco1 | 0.576
34 | C=CCN1C(=O)C(Cc2ccc(OCC)cc2)S/C1=N\N=C\c1cccs1 (stereo unspecified) | 0.126
35 | Cc1ccc(N2CCN(C3=NC(=O)/C(=C\c4cccs4)S3)CC2)cc1 | -0.279
36 | Cn1c(C(=O)NC2CCCCC2)cc2c(=O)n(C)c3ccccc3c21 | -1.32
37 | O=C(CSc1n[nH]c(-c2ccncc2)n1)Nc1ccccn1 | -0.983
38 | NC(=O)C1CCN(CCC(=O)Nc2ccc3c(c2)CCC3)CC1 | 0.152
39 | CC(=O)c1ccc(OCC(O)CN(C)Cc2cccs2)cc1 (stereo unspecified) | -0.147
40 | CCc1nc(NCCCCCO)c2nnn(Cc3ccccc3F)c2n1 | -0.538
41 | O=C(CN1CCN(Cc2ccccc2)CC1)N=Nc1c(O)[nH]c2ccccc12 | -0.328
42 | CCCCCCCOC(=O)c1nc(Cl)c(Cl)c(N)c1Cl | -0.235
43 | O=C(NCCCN1CCOCC1)c1ccc(Sc2ccc(F)cc2)c([N+](=O)[O-])c1 | -0.511
44 | Cc1cc(C)c(S(=O)(=O)N(C)Cc2cnn(C)c2)c(C)c1 | -0.2
45 | Cc1cc(C)n(CC(O)CN2c3ccccc3Sc3ccccc32)n1 (stereo unspecified) | -0.144
46 | O=C(NCC(=O)N(Cc1cccs1)C(C(=O)NC1CCCC1)c1ccco1)c1cccs1 (stereo unspecified) | 0.741

Row | SMILES | z-score
47 | Cc1cnc(C(=O)Nc2ccccc2-n2cccc2)cn1 | 1.34
48 | Cn1c(C(=O)OC(C(=O)NC2CCCCC2)c2ccccn2)cc2sccc21 (stereo unspecified) | -0.474
49 | O=S(=O)(Nc1cccnc1)c1cccc(C(F)(F)F)c1 | 0.171
50 | O=C(NCC1CCCO1)C1CC(c2ccc(Cl)c(Cl)c2)=NO1 (stereo unspecified) | -0.164
51 | CS(=O)(=O)Nc1ccc(C(=O)N2CCN(c3ccccc3)CC2)cc1 | 0.105
52 | O=C(Nc1ccccc1)/C(=C/c1ccc2c(c1)OCO2)NC(=O)c1ccco1 | -0.0767
53 | O=C1C2CC=C(Cl)CC2C(=O)N1CC1Cc2ccccc2CO1 (stereo unspecified) | -0.392
54 | Cc1cc(NC(=O)CSc2nc3sc4c(c3c(=O)n2C)CCCC4)no1 | 0.943
55 | CN1C(=O)C(CC(N)=O)N(NC(=O)c2ccc(Cl)cc2)C1=S (stereo unspecified) | -0.0248
56 | C=CCn1c(COc2ccccc2-c2ccccc2)nnc1SCC(=O)NC(=O)NCc1ccco1 | -0.409
57 | COc1cc(NC(=O)c2ccccc2NS(=O)(=O)c2ccc(Cl)s2)cc(OC)c1 | 0.654
58 | O=C1CCCC2=C1C(c1ccsc1)CC(=O)N2c1nnc(SCc2ccccc2)s1 (stereo unspecified) | -0.68
59 | Cc1nc2scc(-c3cccs3)c2c(=O)n1CC(=O)O | -0.218
60 | Cc1ccc(/C=C2\SC(=S)N(CCCC(=O)Nc3ccccn3)C2=O)cc1 | -0.137
61 | CC(C)(C)NC(=O)C(=O)NNC(=O)COc1ccccc1 | 0.182
62 | NC(=O)c1ccc(NCc2ccco2)c([N+](=O)[O-])c1 | -0.199
63 | Cc1cc(/C=N/NC(=O)C(=O)NCc2ccccn2)c(C)n1-c1ccccc1 | -0.0831
64 | CC1(C)CC(=O)c2cc3c(N)c(C(=O)NCc4ccccc4)sc3nc2C1 | 0.13
65 | CC(C)(C)c1cc(=O)n2c(C#N)c(C#N)nc2[nH]1 | -0.141
66 | Cc1cc(-c2sccc2C)nc(-n2cccc2)n1 | 0.114
67 | Cn1c(=O)c(C(=O)CN2CCN(S(=O)(=O)c3ccccc3)CC2)c(N)n(Cc2ccccc2)c1=O | -0.413
68 | Cc1nnc(SCCn2c(N3CCN(C)CC3)nc3c2c(=O)[nH]c(=O)n3C)s1 | 0.434
69 | O=C(C1CCCCC1)N1CCC(c2nc3c(nnn3Cc3c(F)cccc3Cl)c(=O)[nH]2)CC1 | -2.13

Row | SMILES | z-score
70 | Cc1c(C(=O)N/N=C/c2ccc(-c3ccccc3[N+](=O)[O-])o2)sc(N)c1C#N | 0.00447
71 | COc1cccc2cc3c(=O)oc4ccccc4c3nc12 | 0.283
72 | CCCCOC(=O)CSc1nc(N)c(C#N)c(-c2ccc(OC)cc2)c1C#N | -0.1
73 | COc1ccccc1Nc1ccc(C(=O)NC2CCCCC2)cn1 | 0.419
74 | CCOC(=O)N1CCN(C(=O)CCCn2c(=S)[nH]c3ccccc3c2=O)CC1 | -0.357
75 | CCOC(=O)C(C(=O)Nc1ccccn1)C1CCCCC1 (stereo unspecified) | -0.232
76 | CCCCc1nc(SCC(=O)Nc2ncccn2)n[nH]1 | -0.193
77 | Cc1cc(C)cc(NC(=S)N2CCN(CCO)CC2)c1 | -0.119
78 | COCCNC(=O)C1CC(c2ccc([N+](=O)[O-])cc2)=NO1 (stereo unspecified) | 0.0618
79 | O=C(NCc1ccccc1)c1ccc(S(=O)(=O)N2CCCC2)cc1 | 0.198
80 | Cc1ccc(S(=O)(=O)NCCC(=O)Nc2cccc(Cl)c2)cc1 | -0.046
81 | COc1ccc(C(=O)OCC(=O)NCC2CCCCC2)cc1S(=O)(=O)N1CCCc2ccccc21 | -0.107
82 | COc1ccc(-c2cn3ccccc3n2)cc1OC | 1.17
83 | CCc1cc(C(=O)c2ccccc2OC)c(N)s1 | -0.315
84 | Cc1c2ccccc2nc2c(F)c(NC(C)C)c(F)c(F)c12 | -0.131
85 | Cc1nc(C)c(-c2csc(NCc3ccco3)n2)s1 | -0.0974
86 | COc1cccc(N=C2SC(C(=O)Nc3ccc(F)cc3)CC(=O)N2C)c1 (stereo unspecified) | -0.106
87 | COc1ccc(C(CC(=O)c2ccc(C)cc2)Nc2ccc([N+](=O)[O-])cc2)cc1 (stereo unspecified) | 0.176
88 | Cc1c(NC(=O)OCc2ccccc2)c(=O)n(-c2ccccc2)n1C | 0.151
89 | CCC(C)(NC(=O)c1cccc(N2C(=O)CSC2c2ccccc2)c1)C(=O)Nc1ccccc1C (stereo unspecified) | -0.133
90 | CCn1c(CC(=O)Nc2ccc(Cl)c(Cl)c2)nnc1SCc1ccc(C)cc1 | -0.174
91 | COCCCNCCCCSc1ccc(Cl)cc1 | 0.818
92 | O=C(Cn1cc(Cl)ccc1=O)c1ccc(Cl)cc1 | 0.233

Row | SMILES | z-score
93 | O=C(N/C(=C/c1cccs1)C(=O)N1CCOCC1)c1ccco1 | -0.0656
94 | COc1ccc(CC(=O)Nc2c3c(nn2-c2ccccc2C)CS(=O)C3)cc1 (stereo unspecified) | -0.0338
95 | CCOC(=O)COc1cc(N2C(=O)CSCC2=O)c(Cl)cc1Cl | -0.277
96 | CN(C(=O)COC(=O)c1ccccc1SCC(=O)NC1CCCCCCC1)C1CCS(=O)(=O)C1 (stereo unspecified) | -0.32
97 | CN(C)CCOC(C1CCCCC1)C1CCCCC1 | 0.453
98 | CN1CCN(C(=O)CCc2nc3ccccc3c(=O)[nH]2)CC1 | -0.0692
99 | CCCCc1nnc(NC(=O)C(C)Sc2nc(N)cc(=O)[nH]2)s1 (stereo unspecified) | -0.615
100 | O=C1CC(=O)N(c2ccccc2)c2ccccc21 | -1.05
101 | Cc1nc(SCC#N)c2c3c(sc2n1)CCC3 | -0.0564
102 | O=C(O)c1ccc(-n2nnnc2SCc2ccccc2F)cc1 | -0.0238
103 | CCOC(=O)/C(=N/Nc1ccc(Cl)cc1)S(=O)(=O)c1ccc(Cl)cc1 | -0.206
104 | O=C(O)CCc1nc2cccnc2n1Cc1ccccc1 | -0.427
105 | Cc1cc(Cl)ccc1OCC(=O)NCCOc1nc(N2CCOCC2)nc(N2CCOCC2)n1 | 0.0773
106 | O=C(N/C(=C/c1cccnc1)C(=O)N1CCOCC1)c1ccccc1 | 0.00742
107 | CCOC(=O)C(C)Oc1cccc2c(=O)n(CC(=O)Nc3ccc4c(c3)OCCO4)ccc12 (stereo unspecified) | -0.343
108 | Cc1cc(N2CCC(C)CC2)n2ncc(-c3ccccc3)c2n1 | active: 3.32
109 | CC(CNc1ccc([N+](=O)[O-])cc1)NC(=O)c1ccccc1Br (stereo unspecified) | -0.0142
110 | CN1OC(COC(=O)c2ccccc2)CC1c1ccccc1 (stereo unspecified) | -0.212
111 | COc1ccc(NC(=O)c2oc3ccccc3c2NC(=O)COc2ccccc2OC)c(OC)c1 | 0.0251
